Over roughly 18,000 sequences, “TetR repression strength (sort-seq, GFP reporter)” has its median near 0.23; the highest 2% begin near 0.68. The list shows a part of the results.
Each sequence was assayed against TetR (class B, Tn10) (UniProt P04483) (assay: TetR repression strength (sort-seq, GFP reporter) (relative to tetO2 = 1); higher = stronger repression). Conditions: E. coli.
Method in brief: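 E. coli SIG10-MAX carried a low-copy plasmid library with eight randomized operator positions between a constitutive promoter and sfGFP, with TetR constitutively expressed. Cells grew 5 h at 37 °C in LB with 50 µg/mL chloramphenicol, then 10^6 cells were FACS-sorted into 13 fluorescence bins, each Illumina-sequenced. Repression strength is the top bin index plus one minus the read-weighted mean bin, divided by the wild-type operator value. Three independent transformations; variants with ≥30 reads in all replicates and CV ≤0.5 were averaged.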

UniProt P04483, sequence (P04483 whole entry): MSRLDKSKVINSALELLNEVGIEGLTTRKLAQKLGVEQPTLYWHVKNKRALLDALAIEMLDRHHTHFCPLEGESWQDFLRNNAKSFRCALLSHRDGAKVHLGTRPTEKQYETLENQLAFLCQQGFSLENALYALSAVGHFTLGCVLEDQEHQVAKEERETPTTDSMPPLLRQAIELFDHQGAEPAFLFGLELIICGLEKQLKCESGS

Sequence | TetR repression strength
TCCCGCAGAGTTGGTGAGA | 0.212
TCCCCTGAAGTCAGGGAGA | 0.284
TCCCCTGAAGTAGAGGAGA | 0.591
TCCCATCCAGTGGCTGAGA | 0.338
TCCCGAGCAGTGTAGGAGA | 0.0474
TCCCCGGTAGTAATTGAGA | 0.0259
TCCCCGAGAGTAGAAGAGA | 0.461
TCCCGCGGAGTCAGCGAGA | 0.0334
TCCCGTCTAGTTAACGAGA | 0.368
TCCCGCGCAGTGTTGGAGA | 0.194
TCCCGGAAAGTTCCAGAGA | 0.201
TCCCGCCCAGTTTGTGAGA | 0.19
TCCCGGAAAGTATTGGAGA | 0.352
TCCCTGTGAGTTACAGAGA | 0.348
TCCCGAATAGTCGTAGAGA | 0.207
TCCCACATAGTGCACGAGA | 0.194
TCCCCTGGAGTGGAGGAGA | 0.258
TCCCTGAGAGTGTAGGAGA | 0.107
TCCCGAAGAGTACCGGAGA | 0.00527
TCCCGCGTAGTGTGCGAGA | 0.487
TCCCGATCAGTGTTCGAGA | 0.548
TCCCGTTGAGTCATGGAGA | 0.178
TCCCGAAAAGTGTTCGAGA | 0.247
TCCCTCATAGTAATGGAGA | 0.248
TCCCATTCAGTACGTGAGA | 0.246
TCCCTTTTAGTCGAGGAGA | 0.346

Sequence | TetR repression strength
TCCCGAGGAGTCTGCGAGA | 0.12
TCCCAACCAGTAGATGAGA | 0.014
TCCCTCGCAGTAGGAGAGA | 0.288
TCCCTCCAAGTAACTGAGA | 0.39
TCCCTCAAAGTTGTCGAGA | 0.26
TCCCCTCAAGTCCCTGAGA | 0.227
TCCCGGCTAGTCGGAGAGA | 0.196
TCCCGATGAGTGTGCGAGA | 0.143
TCCCACGAAGTGAAGGAGA | 0.0957
TCCCAGGTAGTTGATGAGA | 0.177
TCCCTCGAAGTCTCGGAGA | 0.228
TCCCGAGGAGTTGCCGAGA | 0.154
TCCCATGCAGTTAGCGAGA | 0.104
TCCCAGGAAGTCACAGAGA | 0.187
TCCCTTAAAGTAGGCGAGA | 0.0673
TCCCGATTAGTGCATGAGA | 0.178
TCCCCTATAGTGTGGGAGA | 0.144
TCCCGATTAGTGAGGGAGA | 0.309
TCCCTTCTAGTATCGGAGA | 0.317
TCCCCTTGAGTGGTTGAGA | 0.286
TCCCTATCAGTTCGTGAGA | 0.423
TCCCCACAAGTACAGGAGA | 0.0968
TCCCAGCCAGTGCCTGAGA | 0.328
TCCCCGGAAGTGAAGGAGA | 0.296
TCCCTAGCAGTTGGTGAGA | 0.408
TCCCCTGGAGTCCTGGAGA | 0.439

Sequence | TetR repression strength
TCCCTGGGAGTGCGCGAGA | 0.124
TCCCTGCGAGTACAAGAGA | 0.325
TCCCGGTAAGTTAGGGAGA | 0.14
TCCCGATGAGTGTAGGAGA | 0.224
TCCCGGACAGTGGAAGAGA | 0.0571
TCCCAACAAGTTTGGGAGA | 0.136
TCCCTCTGAGTTAGCGAGA | 0.372
TCCCGAGGAGTGGTCGAGA | 0.189
TCCCCAAGAGTGCGGGAGA | 0.0296
TCCCTTACAGTGTGCGAGA | 0.251
TCCCGTTTAGTGACGGAGA | 0.166
TCCCTGGAAGTAGCAGAGA | 0.0782
TCCCGTCAAGTCGCAGAGA | 0.244
TCCCTATGAGTTTGAGAGA | 0.33
TCCCTGGAAGTGGACGAGA | 0.298
TCCCGACAAGTGGTCGAGA | 0.162
TCCCGTTTAGTAGTCGAGA | 0.0473
TCCCACGCAGTGCGCGAGA | 0.203
TCCCCGCTAGTTCGCGAGA | 0.476
TCCCGGGCAGTACCTGAGA | 0.388
TCCCATGCAGTGCCGGAGA | 0.184
TCCCAGGAAGTCGCTGAGA | 0.0904
TCCCACCTAGTGACGGAGA | 0.131
TCCCTCTTAGTTTCAGAGA | 0.485
TCCCCCAGAGTAAGGGAGA | 0.178
TCCCCTCGAGTTCAGGAGA | 0.208

Sequence | TetR repression strength
TCCCCCGGAGTCGCAGAGA | 0.224
TCCCGTGGAGTGGTAGAGA | 0.203
TCCCGTGAAGTCGGAGAGA | 0.285
TCCCTCCGAGTCCGCGAGA | 0.512
TCCCCGTGAGTCCAAGAGA | 0.401
TCCCGCACAGTGCGAGAGA | 0.19
TCCCGCAGAGTCTAAGAGA | 0.265
TCCCCGGGAGTCTTGGAGA | 0.188
TCCCGTGTAGTGTGCGAGA | 0.128
TCCCAGCGAGTACTGGAGA | 0.382
TCCCGTCAAGTACGCGAGA | 0.196
TCCCAGATAGTGAGAGAGA | 0.238
TCCCTACTAGTAACAGAGA | 0.303
TCCCTAGAAGTTCTAGAGA | 0.518
TCCCTCGCAGTTGGGGAGA | 0.228
TCCCGCAAAGTTCTGGAGA | 0.174
TCCCAACGAGTCAACGAGA | 0.366
TCCCGAACAGTAGTCGAGA | 0.121
TCCCCTTGAGTGCCCGAGA | 0.569
TCCCGTATAGTCGGGGAGA | 0.216
TCCCCGTAAGTTTTAGAGA | 0.346
TCCCCAAGAGTGTCAGAGA | 0.37
TCCCGGTAAGTTCGTGAGA | 0.214
TCCCGTGTAGTAACTGAGA | 0.0296
